Results taken from PubChem BioAssay AID686979 (National Center for Advancing Translational Sciences (NCATS), 2013).
The whole screen tested about 420,000 compounds, of which about 50,000 (12%) were called active. The inconclusive results got no clear call from the source; some entries with a clear call stand among them for comparison. The call rests on the fitted dose curve; in most records, active means well fitted inhibition curve with a large enough effect; inconclusive means small, poorly fitted or top-dose-only effect; inactive means flat fitted curve, though single readings scatter. No potency is given beside an inconclusive call; the fits are too rough.

assay: qHTS for Inhibitors of human tyrosyl-DNA phosphodiesterase 1 (TDP1): qHTS in cells in presence of CPT; settings: chicken DT40 Tdp1-/-;hTDP1 cells + 20 nM CPT, ATP luminescence, 48 h; activity change, negative = growth inhibition: at 46.2 µM (top of the series); further: nearly all actives have a fitted effect of over 55% in size
Outline: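 Cell growth measured by CellTiter-Glo luminescence after a minimum 48 h, 37 C compound exposure with 20 nM CPT in Tdp1-knockout DT40 cells stably expressing hTDP1, seeded 400/well; qHTS titration format.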
On the % scale 0 is the no-effect control and ±100 the full control effect; potency means the concentration at half of the fitted maximal effect; tags describe the fitted curve by direction and shape.

SMILES	Potency	activity change, negative = growth inhibition
COc1cccc(N2CCN(C(=O)CCCCCn3c(=O)[nH]c4ccccc4c3=O)CC2)c1	inconclusive [inhibitor, single point]	
CC1CCn2c(nc3cc(C(=O)NCc4ccc(OC(C)C)cc4)ccc32)C1 (configuration not stated)	inconclusive [inhibitor, single point]	
COCCC1CCCCN1Cc1nc(N2CCCCC2)c2cc(OC)c(OC)cc2n1 (configuration not stated)		inactive: -5.76% [at 9.04 µM]
O=C(O/N=C\c1ccc(N2CCCCC2)c([N+](=O)[O-])c1)c1ccc(Cl)cc1Cl	inconclusive [inhibitor, single point]	
O=C(CSc1nc(N2CCCCC2)nc(N2CCCCC2)n1)c1ccccc1	inconclusive [inhibitor, single point]	
O=C(N/N=C/c1c[nH]c2ccccc12)C1CC1(c1ccccc1)c1ccccc1 (configuration not stated)	inconclusive [inhibitor, single point]	
O=C(NCc1ccc2c(c1)OCO2)c1cc(-c2ccccc2)c(N2CCOCC2)s1	inconclusive [inhibitor, single point]	
CC(C)c1ccc(NC(=O)CSc2nc3ccccc3nc2Cc2ccccc2)cc1	inconclusive [inhibitor, full curve, poor fit]	
COc1ccccc1CNC(=O)C1CCN(S(=O)(=O)c2ccc3c(c2)CCCN3C(C)=O)CC1	inconclusive [inhibitor, single point]	
Cc1ccc(-n2cc(C(C)(C)C)[nH]c2=S)cc1	inconclusive [inhibitor, single point]	
COc1ccc(-c2csc3ncnc(N4CCN(S(=O)(=O)c5ccc(C(C)=O)cc5)CC4)c23)cc1	inconclusive [inhibitor, single point]	
NC(Cc1ccc(Cl)cc1)c1csc(Nc2nccc(C(F)(F)F)n2)n1 (configuration not stated)	inconclusive [inhibitor, single point]	
COc1cccc(C(=O)N(CN2CCCC2=O)c2cccc(Cl)c2)c1OC	inconclusive [inhibitor, single point]	
N=c1oc2ccccc2cc1C(=O)Nc1cccc(F)c1	inconclusive [inhibitor, single point]	
CC(C)(Oc1ccc(Cl)cc1)C(=O)NCCN1C(=O)S/C(=C/c2cccnc2)C1=O	inconclusive [inhibitor, single point]	
CCC(C(=O)NC1CCC(C)CC1)n1nc(C)c2sc3ccccc3c2c1=O (configuration not stated)	active: 14.6 µM	
C=CCON1C(=O)C(=O)N(OCC=C)[C@H]2CCCC[C@H]21	inactive	
CC(CCc1ccccc1)NC(=O)C1CCN(S(=O)(=O)N2CCCCC2)CC1 (configuration not stated)	inconclusive [inhibitor, single point]	
Cc1ccc(N2C(=O)N(CC(=O)NC(c3ccccc3)c3ccccc3)C(=O)C2C)cc1 (configuration not stated)	inconclusive [inhibitor, single point]	
COC(=O)C1=C(C(=O)OC)[C@@H]2N(C)c3ccc(OC)cc3[C@@]23C[C@@H](C(=O)OC)N(C(=O)c2ccc(Br)cc2)C3=N1	inconclusive [inhibitor, single point]	
Cc1ccc(S(=O)(=O)N(C)Cc2nc(-c3ccccc3)oc2C)cc1	inconclusive [inhibitor, single point]	
N#Cc1c(Nc2ccccc2C(F)(F)F)s[nH]c1=O	active: 20.6 µM	
COc1ccc(Cn2ccc3nc(C)c(C(=O)N4CCN(c5ccc(OC)cc5)CC4)cc3c2=O)cc1	active: 23.1 µM	

SMILES	Potency	activity change, negative = growth inhibition
O=C(CSc1nnc(COc2ccc(Cl)cc2)o1)N(c1ccccc1)C1CCS(=O)(=O)C1 (configuration not stated)	inconclusive [inhibitor, single point]	
CN(C)CCNC(=O)C(=O)NCC(c1cccnc1)N1CCN(c2ccc(F)cc2)CC1 (configuration not stated)	inactive	
CCOc1ccccc1NC(=O)Cn1nnc(C(=O)NCc2ccc(F)cc2)c1N	inconclusive [inhibitor, partial curve]	
O=C(N/N=C/c1cc2ccccc2nc1Cl)[C@H]1C[C@@H]1c1ccccc1	active: 20.6 µM	
CN(C)c1ccc(N=Cc2cccc3ccccc23)cc1	active: 4.47 µM	
CSc1nc(SCCN(C)C)c2c3c(sc2n1)COC(C)(C)C3	inconclusive [inhibitor, single point]	
NC(=O)c1ccsc1NC(=O)c1nc(-c2ccccc2)n(-c2ccccc2)n1	inconclusive [inhibitor, single point]	
OC[C@H]1O[C@H](OC[C@H]2O[C@H](OC[C@H]3O[C@H](O[C@]4(CO)O[C@H](CO)[C@@H](O)[C@@H]4O)[C@H](O)[C@@H](O)[C@@H]3O)[C@H](O)[C@@H](O)[C@H]2O)[C@H](O)[C@@H](O)[C@H]1O	inactive	
O=C(O)CCCN1C(=O)/C(=C\c2ccc(-c3nc4ccccc4s3)o2)SC1=S	inconclusive [inhibitor, single point]	
CC(C)c1ccccc1NC(=O)COc1ccc(C(=O)NCCc2ccccc2)cc1	inconclusive [inhibitor, single point]	
COCCNC(=O)c1ccc2c(c1)ncn2-c1cccc(C)c1	active: 16.4 µM	
CN(C)CC(C)(C)CNC(=S)NCc1ccc2c(c1)OCO2	inactive	
Cc1nc2c(OCc3ccccc3)cccn2c1CC#N	inconclusive [inhibitor, single point]	
COc1ccc(CN(Cc2cccn2C)C(=O)c2cc3cc(OC)ccc3[nH]2)cc1	inconclusive [inhibitor, single point]	
O=C(NCc1ccco1)c1ccc2c(c1)N(Cc1c(F)cccc1Cl)C(=O)c1ccccc1S2	inconclusive [inhibitor, single point]	
OC(c1cc(F)cc(Cl)c1)c1ncc(-c2cccc(C(F)(F)F)c2)[nH]1 (configuration not stated)	active: 16.4 µM	
Cc1cc(=O)oc2c3c(cc(OCC(=O)N4CCC[C@H]4C(=O)O)c12)OC(C)(C)CC3	inactive	
COc1ccc(N(CC(=O)Nc2cc(C)ccc2C)S(=O)(=O)c2c(C)noc2C)cc1	inconclusive [inhibitor, single point]	
CC(C)c1ccc(NC(=O)CN2C(=O)NC3(CCCC3)C2=O)cc1	inconclusive [inhibitor, single point]	
COc1cc2c(cc1OC)C(C)N(C(=O)c1cc3c(C)cc(C)cc3[nH]1)CC2 (configuration not stated)	active: 16.4 µM	
Cc1cc(C)cc(N2C(=O)CC(Cn3nc(C)cc3C)C2=O)c1 (configuration not stated)	inconclusive [inhibitor, full curve, poor fit]	
Cc1ccc(S(=O)(=O)N2CCCC(C(=O)N(Cc3cccs3)C3CC3)C2)cc1 (configuration not stated)	active: 13 µM	
COc1ccc(-c2c(C)nn3c(C(F)(F)F)cc(-c4ccccc4)nc23)cc1	inconclusive [inhibitor, single point]	

SMILES	Potency	activity change, negative = growth inhibition
CCn1c(S(=O)(=O)O)nc2ccccc21	inactive	
O=C(Nc1nnc([C@H]2C[C@H](O)[C@@H](CO)O2)s1)Nc1cccc2c1CCCC2	inactive	
Cc1nc2nc(SCc3ccccc3)[nH]n2c(=O)c1CCC(C)C	inactive	
COc1c(OC)c(O)c2c(=O)cc(-c3c(O)cccc3O)oc2c1OC	inconclusive [inhibitor, partial curve]	
COc1ccc(C(=O)NCc2ccc3c(c2)CCN3C(=O)c2ccc(C)cc2)cc1	inconclusive [inhibitor, single point]	
CCNC(=S)NNC(=O)c1ccccc1Cl	inactive	
CCCCOC(=O)c1ccc(-c2ccc(/C=N/NC(=S)NCC)o2)cc1	active: 5.8 µM	
Cc1ccc(S(=O)(=O)Nc2ccc(N3CCN(C)CC3)nc2)cc1	inactive	
COc1ccc(C2CC=C(C(C)=O)CN2S(=O)(=O)c2ccccc2)cc1 (configuration not stated)	inconclusive [inhibitor, single point]	
COC(=O)c1c(NC(=O)CN(C)CC(=O)Nc2ccc(C)cc2)sc2c1CCC(C)C2 (configuration not stated)	inconclusive [inhibitor, single point]	
O=C(c1ccco1)N1CCN(Cc2nc3ccccc3c(=O)n2-c2ccc(F)cc2)CC1	inconclusive [inhibitor, partial curve]	
CCc1ccccc1NC(=O)C(Cc1ccccc1)c1nn[nH]n1 (configuration not stated)	inactive	
COCCN(C(=O)COC(=O)C1=COCCO1)c1c(N)n(Cc2ccccc2)c(=O)[nH]c1=O	inactive	
CC(=O)Nc1ccc(S(=O)(=O)NNC(=S)NCc2ccco2)cc1	inconclusive [inhibitor, full curve, poor fit]	
Cc1ccc(-n2nc3ccc(NC(=O)COc4ccccc4)cc3n2)cc1Cl	inconclusive [inhibitor, single point]	
Cc1cccc(-n2c(=O)c3ccccc3n(Cc3ccccc3)c2=O)c1	active: 23.1 µM	
O=C(CCCOc1ccc(Cl)cc1Cl)N/N=C/c1ccccc1O	active: 5.17 µM	
CC1CCC(C(C)C)C(OCC(O)CN2CCCC(C)C2)C1 (configuration not stated)	inconclusive [inhibitor, single point]	
CC(=O)c1cccc(NC(=O)C2CCN(S(=O)(=O)c3ccc4[nH]c(=O)ccc4c3)CC2)c1	inactive	
Cc1ccc(CNC(=O)C2CCN(Cc3nc(-c4cccc(Br)c4)oc3C)CC2)cc1	inconclusive [inhibitor, single point]	
O[C@@H]1CN(Cc2ccccc2Cl)CC[C@H]1N1CCOCC1	inactive	
